Results reported in publication PMC546208.
Changes are numbered by the printed parent chain. These are yes or no findings as the source states them, for the method shown. Some results given as binding are weak or reduced against the parent protein; the word gives no strength. For some of these results: Where a sequence is shown, tags or fusion partners need not be part of it.

By UniProt entry, the sequences of proteins in these tests, tags left out. Residues count along the entry.
UniProt O14936, residues 489-564: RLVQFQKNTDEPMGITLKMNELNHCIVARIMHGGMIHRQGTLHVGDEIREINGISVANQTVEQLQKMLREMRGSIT
UniProt Q96RT1, residues 1321-1410: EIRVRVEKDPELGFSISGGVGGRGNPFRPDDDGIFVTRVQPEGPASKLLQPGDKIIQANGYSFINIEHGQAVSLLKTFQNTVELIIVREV
UniProt Q9NRD5, residues 22-105: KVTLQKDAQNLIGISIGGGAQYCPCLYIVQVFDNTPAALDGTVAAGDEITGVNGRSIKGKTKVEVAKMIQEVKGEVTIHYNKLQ
UniProt Q14160, residues 669-1233: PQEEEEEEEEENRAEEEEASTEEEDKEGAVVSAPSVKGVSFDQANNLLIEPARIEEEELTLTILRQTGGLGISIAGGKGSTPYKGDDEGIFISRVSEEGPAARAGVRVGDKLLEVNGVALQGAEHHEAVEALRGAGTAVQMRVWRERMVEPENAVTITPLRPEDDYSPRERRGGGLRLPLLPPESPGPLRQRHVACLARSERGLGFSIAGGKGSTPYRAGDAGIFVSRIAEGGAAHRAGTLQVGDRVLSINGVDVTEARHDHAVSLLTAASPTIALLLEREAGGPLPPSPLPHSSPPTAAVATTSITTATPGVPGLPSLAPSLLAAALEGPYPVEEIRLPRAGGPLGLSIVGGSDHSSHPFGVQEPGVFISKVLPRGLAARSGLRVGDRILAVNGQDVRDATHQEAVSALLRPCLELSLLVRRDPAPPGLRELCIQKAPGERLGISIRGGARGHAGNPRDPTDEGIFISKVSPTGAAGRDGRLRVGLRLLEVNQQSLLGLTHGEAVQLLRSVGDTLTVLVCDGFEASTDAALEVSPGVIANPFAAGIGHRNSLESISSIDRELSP

T1: pGBT9-LPPWT: third LIM domain and carboxy-terminus of human LPP (amino acids 531–612) (human) (UniProt Q93052)
T1 sequence: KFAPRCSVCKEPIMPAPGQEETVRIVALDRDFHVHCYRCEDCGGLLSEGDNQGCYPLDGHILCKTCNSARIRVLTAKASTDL

T2: pM-LPP_(dNESL612A) (human) (UniProt Q93052)
T2 sequence: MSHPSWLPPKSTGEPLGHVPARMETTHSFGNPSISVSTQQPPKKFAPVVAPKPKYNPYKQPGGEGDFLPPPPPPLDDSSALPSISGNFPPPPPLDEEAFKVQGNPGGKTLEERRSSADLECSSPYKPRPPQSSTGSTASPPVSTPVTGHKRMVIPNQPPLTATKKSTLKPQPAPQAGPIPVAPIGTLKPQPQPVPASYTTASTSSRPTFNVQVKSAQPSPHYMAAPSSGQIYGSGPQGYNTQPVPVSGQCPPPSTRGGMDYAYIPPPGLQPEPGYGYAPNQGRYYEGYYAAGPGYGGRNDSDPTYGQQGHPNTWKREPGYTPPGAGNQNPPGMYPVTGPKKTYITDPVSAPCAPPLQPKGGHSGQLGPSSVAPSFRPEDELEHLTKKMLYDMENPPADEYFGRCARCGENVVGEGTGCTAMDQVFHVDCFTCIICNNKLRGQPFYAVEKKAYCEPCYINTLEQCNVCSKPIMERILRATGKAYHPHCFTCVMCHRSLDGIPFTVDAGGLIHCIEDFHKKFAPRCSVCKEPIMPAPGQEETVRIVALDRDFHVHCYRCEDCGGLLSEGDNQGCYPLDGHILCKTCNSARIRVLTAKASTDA

T3: pM-LPP_(dNEST610A) (human) (UniProt Q93052)
T3 sequence: T2 sequence with T598A, A600L

T4: pM-LPP_(dNESWT): GAL4-fused full length human LPP with a deletion of the NES (human) (UniProt Q93052)
T4 sequence: T2 sequence with A600L

B1: AF6-PDZ (pACT2-AF6) (domain or fragment, UniProt P55196 1007-1093)
chain: IITVTLKKQNGMGLSIVAAKGAGQDKLGIYVKSVVKGGAADVDGRLAAGDQLLSVDGRSLVGLSQERAAELMTRTSSVVTLEVAKQG

How the values were obtained:
[1] = target: T1, pGBT9-LPPWT: third LIM domain and carboxy-terminus of human LPP (amino acids 531–612) (human); assay: two-hybrid; yeast, pGBT9-LPPWT with pACT2 preys of PDZ domains; growth on medium lacking Leu and Trp, with His or without His with 5 mM 3-AT
[2] = target: T2, pM-LPP_(dNESL612A) (human); assay: two-hybrid; mammalian two-hybrid in HEK293 cells; pM baits, pSNATCH prey, GAL4-regulated luciferase reporter, CMV-β-galactosidase internal control; lysates assayed 18-24 hours after transfection
[3] = target: T3, pM-LPP_(dNEST610A) (human); assay: as above
[4] = target: T4, pM-LPP_(dNESWT): GAL4-fused full length human LPP with a deletion of the NES (human); assay: as above

| Molecule | binding [1] | binding [2] | binding [3] | binding [4] |
| --- | --- | --- | --- | --- |
| CASK-PDZ (pACT2-CASK) (from UniProt O14936 489-564) (domain or fragment) | no binding | – | – | – |
| Erbin-PDZ (pACT2-Erbin) (from UniProt Q96RT1 1321-1410) (domain or fragment) | no binding | – | – | – |
| PICK1-PDZ (pACT2-PICK1) (from UniProt Q9NRD5 22-105) (domain or fragment) | no binding | – | – | – |
| pSNATCH-hScribPDZ: part of the human Scrib protein (amino acids 669–1233) encompassing all four PDZ-domains (from UniProt Q14160 669-1233) (domain or fragment) | – | no binding | no binding | binds |
| B1 | no binding | – | – | – |
